{"source": "paper PMC4336329", "about": "(PLoS ONE, 2015)", "note": "In all, about 310,000 compounds went through this assay and about 14,000 (4.5%) showed an effect of 50% or more. Effects have a minus sign here. Some of the results follow.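 Also: peak tail current of the secondary pulse compared with the same well before compound.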"}
{"biological_target": "human ether-à-go-go-related gene (hERG) potassium channel (human, UniProt Q12809)", "sequence (Q12809 whole entry, looked up)": "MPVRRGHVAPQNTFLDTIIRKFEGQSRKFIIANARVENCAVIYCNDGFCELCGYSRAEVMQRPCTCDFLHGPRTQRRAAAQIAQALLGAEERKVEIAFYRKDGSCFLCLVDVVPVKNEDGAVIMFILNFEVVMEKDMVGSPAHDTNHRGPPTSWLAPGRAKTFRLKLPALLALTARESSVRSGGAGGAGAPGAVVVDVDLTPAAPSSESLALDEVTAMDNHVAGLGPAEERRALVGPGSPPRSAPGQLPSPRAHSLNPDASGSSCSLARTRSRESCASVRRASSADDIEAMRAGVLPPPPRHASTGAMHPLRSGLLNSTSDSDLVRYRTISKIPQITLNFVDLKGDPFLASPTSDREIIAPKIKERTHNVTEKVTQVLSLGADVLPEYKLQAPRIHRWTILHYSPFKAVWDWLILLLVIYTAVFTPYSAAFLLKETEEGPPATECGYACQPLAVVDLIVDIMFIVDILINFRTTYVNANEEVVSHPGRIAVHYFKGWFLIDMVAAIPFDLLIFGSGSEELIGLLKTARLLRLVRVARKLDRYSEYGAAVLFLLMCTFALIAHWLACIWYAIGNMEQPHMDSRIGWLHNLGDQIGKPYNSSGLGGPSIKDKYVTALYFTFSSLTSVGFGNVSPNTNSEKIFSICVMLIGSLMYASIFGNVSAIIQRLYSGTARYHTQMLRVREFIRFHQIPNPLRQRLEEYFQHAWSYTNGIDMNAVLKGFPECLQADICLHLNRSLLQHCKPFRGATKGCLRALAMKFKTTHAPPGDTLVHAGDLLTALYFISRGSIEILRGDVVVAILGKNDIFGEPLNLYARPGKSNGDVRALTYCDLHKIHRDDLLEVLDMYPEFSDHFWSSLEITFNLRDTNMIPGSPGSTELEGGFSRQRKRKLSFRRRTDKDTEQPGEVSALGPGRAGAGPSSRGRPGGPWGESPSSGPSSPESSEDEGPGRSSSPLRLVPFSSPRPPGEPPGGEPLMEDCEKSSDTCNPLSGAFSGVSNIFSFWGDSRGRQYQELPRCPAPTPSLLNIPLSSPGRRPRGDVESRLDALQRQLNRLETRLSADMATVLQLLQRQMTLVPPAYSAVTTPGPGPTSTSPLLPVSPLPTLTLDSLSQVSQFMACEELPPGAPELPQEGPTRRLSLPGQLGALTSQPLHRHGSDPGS", "experiment": "primary screen, population patch clamp on CHO cells stably expressing hERG", "units": {"hERG current change (%, negative = inhibition) at 10uM": "%"}}
{"smiles": "O=C(Nc1cccc(C(=O)NC2CCCCC2)c1)c1ccccc1", "hERG current change (%, negative = inhibition) at 10uM": 12.1}
{"smiles": "O=C(COc1ccccc1)Nc1ccc(-c2nnc(-c3ccco3)o2)cc1", "hERG current change (%, negative = inhibition) at 10uM": 6.25}
{"smiles": "NC(=NCc1ccco1)NC(=O)c1ccc(Cl)cc1", "hERG current change (%, negative = inhibition) at 10uM": -10.1}
{"smiles": "CCC(CC)C(=O)NN(C(=O)c1ccncc1)C1CC(=O)N(c2ccccc2)C1=O", "note": "(centres unmarked)", "hERG current change (%, negative = inhibition) at 10uM": 9.23}
{"smiles": "NC(=S)N=Nc1ccc(NN=C(N)N)cc1", "hERG current change (%, negative = inhibition) at 10uM": 5.65}
{"smiles": "CC1CN(C(=O)COC(=O)/C=C/c2ccc(C(F)(F)F)cc2)CC(C)O1", "note": "(centres unmarked)", "hERG current change (%, negative = inhibition) at 10uM": 5.81}
{"smiles": "CCCn1c(SCC(=O)NCCc2ccccc2)nnc1C(C)C", "hERG current change (%, negative = inhibition) at 10uM": -6.81}
{"smiles": "Cn1ncc(Br)c1C(=O)Nc1cccc(C(F)(F)F)c1", "hERG current change (%, negative = inhibition) at 10uM": 5.14}
{"smiles": "O=C(CCc1ccccc1)Nc1ccc(NC(=O)C2CCCCC2)nc1", "hERG current change (%, negative = inhibition) at 10uM": 7.57}
{"smiles": "O=C(NNC(=O)C12CC3CC(CC(C3)C1)C2)c1ccccc1F", "hERG current change (%, negative = inhibition) at 10uM": 4.02}
{"smiles": "Cc1ccc(C(=O)NS(=O)(=O)c2ccc(C)cc2)cc1", "hERG current change (%, negative = inhibition) at 10uM": 36.3}
{"smiles": "O=C(N1CCOCC1)N(CCN1CCOCC1)Cc1cccc2ccccc12", "hERG current change (%, negative = inhibition) at 10uM": -7.55}
{"smiles": "CCCCN1CC[C@H]2C=CC[C@@H](C(=O)Nc3ccc(Cl)cc3Cl)[C@H]2C1=O", "hERG current change (%, negative = inhibition) at 10uM": -43.7}
{"smiles": "CS(=O)(=O)c1ccc(NCCc2ccccn2)c([N+](=O)[O-])c1", "hERG current change (%, negative = inhibition) at 10uM": -22.7}
{"smiles": "COc1ccc(OCC(O)CN2CCN(Cc3ccc4c(c3)OCO4)CC2)cc1.Cl", "note": "(centres unmarked)", "hERG current change (%, negative = inhibition) at 10uM": -47.4}
{"smiles": "CN(Cc1ccccc1)C(=O)c1nn2cccnc2c1Cl", "hERG current change (%, negative = inhibition) at 10uM": -0.218}
{"smiles": "Cc1ccccc1OCC(O)CNC1CCC(NCC(O)COc2ccccc2C)CC1", "note": "(centres unmarked)", "hERG current change (%, negative = inhibition) at 10uM": -30.3}
{"smiles": "CC1CCCCN1C(=O)COc1ccc(F)cc1", "note": "(centres unmarked)", "hERG current change (%, negative = inhibition) at 10uM": 13}
{"smiles": "COCCN(C(=S)Nc1ccccc1OC)C1CCN(C(C)C)CC1", "hERG current change (%, negative = inhibition) at 10uM": -18.7}
{"smiles": "OCC1CCCN(c2nc(CN3CCCCC3)nc3scc(-c4ccccc4)c23)C1", "note": "(centres unmarked)", "hERG current change (%, negative = inhibition) at 10uM": -63.7}
{"smiles": "CCn1nc(C)c(C2C(C#N)=C(N)OC3=C2C(=O)CC(C)(C)C3)c1C", "note": "(centres unmarked)", "hERG current change (%, negative = inhibition) at 10uM": 2.06}
{"smiles": "CCN(CCO)Cc1csc2cc(C)ccc12.Cl", "hERG current change (%, negative = inhibition) at 10uM": -12.6}
{"smiles": "COc1cccc(N=C2C(=O)N3CCCc4cccc2c43)c1", "hERG current change (%, negative = inhibition) at 10uM": 11.4}
{"smiles": "CS(=O)(=O)N(CC(=O)N1CCN(Cc2ccc3c(c2)OCO3)CC1)C1CCCCC1", "hERG current change (%, negative = inhibition) at 10uM": -1.17}
{"smiles": "O=C(c1ccc(CS(=O)Cc2ccccc2Cl)o1)N1CCN(c2cccc(Cl)c2)CC1", "note": "(centres unmarked)", "hERG current change (%, negative = inhibition) at 10uM": -41.8}
{"smiles": "CCN(C(=S)NC(=O)C1CCCC1)C1CCCCC1", "hERG current change (%, negative = inhibition) at 10uM": 14.6}
{"smiles": "O=C1C(=O)N(Cc2cccs2)c2ccccc21", "hERG current change (%, negative = inhibition) at 10uM": -5.14}
{"smiles": "COC(=O)c1c(Cl)c2n3ccccc3c(C)c(-c3ccccc3)c-2c1C(=O)OC", "hERG current change (%, negative = inhibition) at 10uM": -18.2}
{"smiles": "COc1ccc(NC2CCCN(C(=O)c3cccc(N4CCNC4=O)c3)C2)cc1", "note": "(centres unmarked)", "hERG current change (%, negative = inhibition) at 10uM": 16.4}
{"smiles": "COc1ccc2c(c1)c(C(=O)O)c(C)n2-c1ccc(Cl)cc1", "hERG current change (%, negative = inhibition) at 10uM": 16.7}
{"smiles": "COc1ccccc1C(=O)N1N=C(c2ccc(NS(C)(=O)=O)cc2)CC1c1cccs1", "note": "(centres unmarked)", "hERG current change (%, negative = inhibition) at 10uM": -29.1}
{"smiles": "O=C(NCc1ccco1)C1CC(=O)N(c2cccc(Cl)c2)C1", "note": "(centres unmarked)", "hERG current change (%, negative = inhibition) at 10uM": -11}
{"smiles": "O=S(=O)(c1ccc(Cl)c(NC(=S)Nc2ccccc2N2CCOCC2)c1)N1CCOCC1", "hERG current change (%, negative = inhibition) at 10uM": 4.99}
{"smiles": "COc1ccc(C2(C)NC(=O)N(CC(=O)Nc3c(C)n(C)n(-c4ccccc4)c3=O)C2=O)cc1", "note": "(centres unmarked)", "hERG current change (%, negative = inhibition) at 10uM": 23.9}
{"smiles": "COC(=O)c1ccccc1OC(=O)c1cc2ccccc2oc1=O", "hERG current change (%, negative = inhibition) at 10uM": 19.9}
{"smiles": "O=C(CSc1nc2c(sc3ccccc32)c(=O)n1CCCN1CCCC1)NCc1ccccc1", "hERG current change (%, negative = inhibition) at 10uM": -80.8}
{"smiles": "CCOC(=O)CCc1c(C)c2ccc(OCC(=O)OC(C)C)cc2oc1=O", "hERG current change (%, negative = inhibition) at 10uM": -7.25}
{"smiles": "Cc1ccc(C)c(C(=O)COC(=O)CN2C(=O)C3C4CCC(C4)C3C2=O)c1", "note": "(centres unmarked)", "hERG current change (%, negative = inhibition) at 10uM": 3.74}
{"smiles": "O=C(NCc1ccccc1)c1c(O)c2cccc3c2n(c1=O)CCC3", "hERG current change (%, negative = inhibition) at 10uM": 5.37}
{"smiles": "Cc1ccccc1OCC(=O)Nc1ccc2c(c1)C(=O)N(CCC(=O)O)C2=O", "hERG current change (%, negative = inhibition) at 10uM": -2.34}
{"smiles": "CCOC(=O)N1CCN(C(=O)CSc2nnc(-c3cccc(Cl)c3)o2)CC1", "hERG current change (%, negative = inhibition) at 10uM": -10.5}
{"smiles": "O=C(Nc1cc(=O)[nH]c2nc(-c3ccccc3)nn12)c1ccc(Cl)cc1", "hERG current change (%, negative = inhibition) at 10uM": 14.3}
{"smiles": "Cc1cccc(-c2nnc(SCC(=O)O)n2Cc2ccccc2)c1", "hERG current change (%, negative = inhibition) at 10uM": -6.26}
{"smiles": "Cl.OC(c1cccc(Cl)c1)(c1cccc(Cl)c1)C1CN2CCC1CC2", "note": "(centres unmarked)", "hERG current change (%, negative = inhibition) at 10uM": -81.8}
